Measured values published in PubChem BioAssay (Tox21).
Several values for one entry are separate records, joined by “and”; a condition that tells them apart may be missing. Identical values can stand only once. The inconclusive results got no clear call from the source; some entries with a clear call stand among them for comparison. For some of these results: A potency beside an inconclusive call is a rough fit, not a confirmed value. Activity calls are given as the source filed them. Unless noted, calls come from the whole dose curve; as a rule, active = well fitted curve in the direction sought with a large enough effect in the repeat runs; inconclusive = weak or mixed curves; inactive = no such curve, though single readings can be large; an effect the other way counts as inactive or inconclusive.

Tests used:
[1] = molecular target: Progesterone receptor (Homo sapiens) (UniProt P06401); assay: qHTS assay to identify small molecule antagonists of the progesterone receptor (PR) signaling pathway (AID 1346795; active = well fitted inhibition curve with a large enough effect in the signal ratio in the repeat runs, not every such curve was filed as active; inconclusive = weak or mixed curves; the % refers to the signal ratio; for activity change, negative = inhibition: % is set by controls: 0 for no effect and ±100 for the full control effect); settings: PR-UAS-bla HEK293T, beta-lactamase FRET ratio, 16 h; activity change, negative = inhibition: at 92.4 µM (top of the series) unless noted
Chain of UniProt P06401 (P06401 whole entry, looked up): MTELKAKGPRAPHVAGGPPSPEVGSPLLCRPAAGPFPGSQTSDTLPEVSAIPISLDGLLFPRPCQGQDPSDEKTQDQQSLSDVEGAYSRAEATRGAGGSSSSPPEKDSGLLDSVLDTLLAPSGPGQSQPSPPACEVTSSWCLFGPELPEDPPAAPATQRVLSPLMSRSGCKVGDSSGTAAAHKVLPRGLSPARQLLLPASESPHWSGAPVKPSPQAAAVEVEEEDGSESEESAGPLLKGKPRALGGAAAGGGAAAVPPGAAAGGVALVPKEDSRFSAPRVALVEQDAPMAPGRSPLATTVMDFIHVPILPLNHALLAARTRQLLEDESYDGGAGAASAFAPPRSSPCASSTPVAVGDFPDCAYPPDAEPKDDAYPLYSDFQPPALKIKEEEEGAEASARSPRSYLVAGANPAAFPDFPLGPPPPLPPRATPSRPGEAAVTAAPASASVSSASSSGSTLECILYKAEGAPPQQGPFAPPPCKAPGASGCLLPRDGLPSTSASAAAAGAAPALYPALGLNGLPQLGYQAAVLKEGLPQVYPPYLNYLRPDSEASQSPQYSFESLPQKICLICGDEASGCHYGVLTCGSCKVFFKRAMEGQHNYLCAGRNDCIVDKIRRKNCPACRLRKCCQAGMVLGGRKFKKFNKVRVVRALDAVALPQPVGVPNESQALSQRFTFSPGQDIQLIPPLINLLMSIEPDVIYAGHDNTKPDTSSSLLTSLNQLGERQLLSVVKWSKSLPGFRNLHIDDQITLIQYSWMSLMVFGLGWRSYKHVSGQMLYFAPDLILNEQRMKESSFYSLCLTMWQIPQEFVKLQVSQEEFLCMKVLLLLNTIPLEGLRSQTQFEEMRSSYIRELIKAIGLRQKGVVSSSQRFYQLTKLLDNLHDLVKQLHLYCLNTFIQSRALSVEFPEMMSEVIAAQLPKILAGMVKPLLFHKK
Method in brief: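 Read-out is fluorescence from the LiveBLAzer B/G FRET substrate, cleaved by a UAS-controlled beta-lactamase in PR-UAS-bla HEK293T cells after 16 hr exposure to compound plus 1 nM promegestone (final), followed by 2 hr at room temperature.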

[2] = qHTS assay to identify small molecule antagonists of the progesterone receptor (PR) signaling pathway - cell viability counter screen (AID 1346798); note: nearly all actives have a fitted effect of over 50% in size;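 for activity change, negative = cytotoxicity: HEK293T PR-UAS-bla cells stimulated with the agonist R5020; % is set by controls: 0 for no effect and ±100 for the full control effect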
Method in brief: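 HEK293T PR-UAS-bla, 2% charcoal-stripped FBS; 4 hr pre-plate; cpd + R5020, 16 h 37C; LiveBLAzer read first; then CellTiter-Glo 30 min RT, luminescence.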

[3] = qHTS assay to identify small molecule agonists of the progesterone receptor (PR) signaling pathway - cell viability counter screen (AID 1346799; calls by dose curve; note: nearly all actives have a fitted effect of over 45% in size; for activity change, negative = cytotoxicity: % is set by controls: 0 for no effect and ±100 for the full control effect)
Method in brief: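 Luminescence from CellTiter-Glo, added after the beta-lactamase FRET read in the same wells, gave cytotoxicity in PR-UAS-bla HEK293T cells treated with compounds for 16 hr at 37C.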

[4] = qHTS assay to identify small molecule antagonists of the TGF-beta/Smad signaling pathway (AID 1346924; active = well fitted inhibition curve with a large enough effect in the signal ratio in the repeat runs, not every such curve was filed as active; inconclusive = weak or mixed curves; the % refers to the signal ratio); settings: SBE-bla HEK293T, TGF-beta/Smad reporter, beta-lactamase ratio; activity, negative = inhibition: at 76.8 µM (top of the series) unless noted
Method in brief: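 Read-out was FRET-substrate fluorescence (405 nm excitation; 460 and 530 nm emission) after 2 h at room temperature. Before that, cells carrying a Smad-binding-element beta-lactamase reporter in HEK 293T had been stimulated 5 h at 37 C with TGF-beta1 (0.25 ng/mL addition solution) in the presence of test compound.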

[5] = Human pregnane X receptor (PXR) small molecule agonists, qHTS cell viability counter screen (AID 1346977); note: nearly all actives have a fitted effect of over 50% in size
Method in brief: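 PXR-Luc HepG2, 2,000 cells/well, 5% charcoal-stripped FBS; 5hr settle; cpd 24hr, 37C/5% CO2; CellTiter-Fluor at 23hr, read 1hr later (fluorescence).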

[6] = Caspase-3/7 induction in CHO-K1 cells by small molecules, qHTS cell viability counter screen (AID 1346979); settings: CellTiter-Fluor fluorescence, 17 h; activity change, negative = cytotoxicity: at 92.4 µM (top of the series); note: nearly all actives have a fitted effect of over 35% in size
Method in brief: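 Cells (CHO-K1, wild type) are plated at 1,500 per well and incubated 5hr. Test compounds in DMSO are then pinned in, followed by 16hr at 37C and 5% CO2. Viability is read by CellTiter-Fluor fluorescence after 1hr.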

[7] = Caspase-3/7 induction in HepG2 cells by small molecules, qHTS cell viability counter screen (AID 1346981); note: nearly all actives have a fitted effect of over 30% in size
Method in brief: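 The parent HepG2 line is plated at 2,000 cells per well and rested 5 hr before compound pinning from DMSO stocks. Following a 16-hr treatment at 37 C, a fluorogenic live-cell substrate (CellTiter-Fluor) reports viability after 1 hr.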

[8] = molecular target: Nuclear receptor subfamily 1 group I member 2 (Homo sapiens) (UniProt O75469); assay: Human pregnane X receptor (PXR) small molecule agonists, qHTS assay (AID 1346982); note: nearly all actives have a fitted effect of over 35% in size
Chain of UniProt O75469 (O75469 whole entry, looked up): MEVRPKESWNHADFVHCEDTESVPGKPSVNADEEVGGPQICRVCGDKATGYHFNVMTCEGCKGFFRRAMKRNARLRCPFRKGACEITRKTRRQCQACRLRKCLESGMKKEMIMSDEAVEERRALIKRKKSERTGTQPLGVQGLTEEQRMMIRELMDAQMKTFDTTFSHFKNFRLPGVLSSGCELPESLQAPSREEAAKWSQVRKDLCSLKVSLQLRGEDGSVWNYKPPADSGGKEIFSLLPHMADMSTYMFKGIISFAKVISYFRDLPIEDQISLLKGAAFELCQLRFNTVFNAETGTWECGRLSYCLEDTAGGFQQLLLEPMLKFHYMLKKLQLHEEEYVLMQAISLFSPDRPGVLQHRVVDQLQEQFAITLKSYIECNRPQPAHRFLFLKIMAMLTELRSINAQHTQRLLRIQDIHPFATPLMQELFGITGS
Method in brief: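 After plating in 5% charcoal-stripped FBS and a 5 hr rest, PXR-Luc HepG2 cells received compounds in DMSO. Following 24 hr at 37 C, ONE-Glo was added and light output read.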

[9] = molecular target: Cytochrome P450 2D6 (Homo sapiens) (UniProt P10635); assay: Cytochrome P450 Family 2 Subfamily D Member 6 (CYP2D6) small molecule antagonists: luciferase reporter qHTS assay (AID 1671196); note: nearly all actives have a fitted effect of over 50% in size
Chain of UniProt P10635 (P10635 whole entry, looked up): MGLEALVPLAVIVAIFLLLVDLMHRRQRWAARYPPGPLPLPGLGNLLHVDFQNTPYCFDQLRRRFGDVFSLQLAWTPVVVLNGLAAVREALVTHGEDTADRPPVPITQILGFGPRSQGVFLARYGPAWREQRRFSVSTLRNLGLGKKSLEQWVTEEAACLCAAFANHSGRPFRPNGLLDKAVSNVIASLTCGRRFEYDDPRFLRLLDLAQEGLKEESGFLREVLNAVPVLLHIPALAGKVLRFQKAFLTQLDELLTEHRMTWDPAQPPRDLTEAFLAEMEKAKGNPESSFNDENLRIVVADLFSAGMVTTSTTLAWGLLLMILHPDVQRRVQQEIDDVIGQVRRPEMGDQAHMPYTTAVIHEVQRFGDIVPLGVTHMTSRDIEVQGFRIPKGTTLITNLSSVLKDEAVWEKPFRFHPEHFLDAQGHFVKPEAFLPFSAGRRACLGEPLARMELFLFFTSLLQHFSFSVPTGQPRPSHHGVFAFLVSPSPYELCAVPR
Method in brief: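 Quantitative HTS of Tox21 chemicals against CYP2D6 using a luminescent proluciferin substrate. After NADPH addition, 1 h room-temperature reaction; luminescence recorded 20 min post detection reagent.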

[10] = qHTS assay to identify small molecule agonists of the TGF-beta/Smad signaling pathway (AID 1346859; active = well fitted activation curve with a large enough effect in the signal ratio in the repeat runs, not every such curve was filed as active; inconclusive = weak or mixed curves; the % refers to the signal ratio; for activation: % is set by controls: 0 for no effect and ±100 for the full control effect); settings: SBE-bla HEK293T, TGF-beta/Smad beta-lactamase reporter, 5 h; activation: at 76.8 µM (top of the series)
Method in brief: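 SBE-bla HEK 293T, 4,000 cells/well, plated o/n; cpd in DMSO, 5 hr, 37 C/5% CO2; B/G FRET substrate 2 hr RT; ex 405, em 460/530 nm.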

[11] = Caspase-3/7 induction in HepG2 cells by small molecules, qHTS assay (AID 1346978); note: nearly all actives have a fitted effect of over 15% in size
Method in brief: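 Wild-type HepG2 cells, 2,000/well, settled 5 hr at 37 C and 5% CO2, then compound-treated for 17 hr; caspase-3/7 activity read by luminescent Caspase-Glo 3/7 after 30 min at room temperature.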

[12] = Caspase-3/7 induction in CHO-K1 cells by small molecules, qHTS assay (AID 1346980); note: nearly all actives have a fitted effect of over 15% in size
Method in brief: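 Wild-type CHO-K1 cells exposed to compounds for 17hr at 37 C, 5% CO2. Caspase-3/7 activity then measured by Caspase-Glo 3/7 luminescence after 30min at room temperature.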

[13] = molecular target: Cytochrome P450 2C9 (Homo sapiens) (UniProt P11712); assay: Cytochrome P450 Family 2 Subfamily C Member 9 (CYP2C9) small molecule antagonists: luciferase reporter qHTS assay (AID 1671198); note: nearly all actives have a fitted effect of over 50% in size
Chain of UniProt P11712 (P11712 whole entry, looked up): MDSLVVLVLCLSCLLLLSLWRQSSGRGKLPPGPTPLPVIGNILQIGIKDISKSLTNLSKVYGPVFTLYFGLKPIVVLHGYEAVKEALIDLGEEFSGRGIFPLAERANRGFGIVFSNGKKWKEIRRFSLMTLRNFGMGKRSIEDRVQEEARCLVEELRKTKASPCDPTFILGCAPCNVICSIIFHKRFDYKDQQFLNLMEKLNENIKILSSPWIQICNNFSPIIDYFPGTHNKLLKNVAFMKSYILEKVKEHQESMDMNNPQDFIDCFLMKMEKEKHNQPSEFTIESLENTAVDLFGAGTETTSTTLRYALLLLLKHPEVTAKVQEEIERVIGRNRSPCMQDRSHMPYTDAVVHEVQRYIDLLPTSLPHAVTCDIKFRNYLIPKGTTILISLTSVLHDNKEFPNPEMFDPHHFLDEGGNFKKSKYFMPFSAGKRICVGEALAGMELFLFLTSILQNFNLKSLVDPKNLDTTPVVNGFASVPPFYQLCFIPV
Method in brief: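 P450-Glo proluciferin substrate with CYP2C9 enzyme; 10 min RT preincubation, then NADPH regeneration 1 h at 37C; luciferin detection reagent 20 min RT, luminescence in relative luminescence units.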

[14] = qHTS assay to identify small molecule antagonists of the TGF-beta/Smad signaling pathway - cell viability counter screen (AID 1346824); note: nearly all actives have a fitted effect of over 50% in size
Method in brief: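 SBE-bla HEK 293T cells, incubated overnight, then compound plus 0.25 ng/mL TGF-beta1 (stock added) for 5 hr at 37 C. Viability was read in the same wells by CellTiter-Glo luminescence after 30 min at room temperature.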

[15] = molecular target: Cytochrome P450 2C19 (Homo sapiens) (UniProt P33261); assay: Cytochrome P450 Family 2 Subfamily C Member 19 (CYP2C19) small molecule antagonists: luciferase reporter qHTS assay (AID 1671197); note: nearly all actives have a fitted effect of over 65% in size
Chain of UniProt P33261 (P33261 whole entry, looked up): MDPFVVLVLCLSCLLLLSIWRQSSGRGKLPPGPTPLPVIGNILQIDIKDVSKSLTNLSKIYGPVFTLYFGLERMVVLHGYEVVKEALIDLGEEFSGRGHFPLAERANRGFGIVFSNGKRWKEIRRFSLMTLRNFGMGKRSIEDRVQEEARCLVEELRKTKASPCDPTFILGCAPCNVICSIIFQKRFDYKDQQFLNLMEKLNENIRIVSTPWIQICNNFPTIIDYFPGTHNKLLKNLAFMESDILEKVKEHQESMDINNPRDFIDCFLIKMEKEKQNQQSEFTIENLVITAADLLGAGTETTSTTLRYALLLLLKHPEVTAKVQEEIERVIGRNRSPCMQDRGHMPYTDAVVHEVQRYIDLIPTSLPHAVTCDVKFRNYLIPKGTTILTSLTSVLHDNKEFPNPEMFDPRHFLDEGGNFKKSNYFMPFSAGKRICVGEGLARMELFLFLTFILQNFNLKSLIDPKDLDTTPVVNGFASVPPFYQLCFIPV
Method in brief: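 CYP2C19 P450-Glo, 1536-well qHTS. Cpd + enzyme/proluciferin substrate 10 min RT; + NADPH regen, 37C 1 h; stop with luciferin detection reagent, 20 min RT, luminescence (RLU). Pos ctrl ketoconazole.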
Potency is the fitted concentration of half-maximal effect; tags give direction and shape of the fitted curve or compound fluorescence and quenching.

For O=C(N[C@@H](c1ccccc1)[C@@H]1CCCCN1)c1cccc(C(F)(F)F)c1Cl, the Potency [1] was active: 34.4 µM, the Potency [2] was inconclusive: 77 µM [cytotoxic, single point] and the Potency [3] was inconclusive: 68.6 µM [cytotoxic, single point]. For the same compound, the activity, negative = inhibition [4] was inconclusive: -3.86%, the Potency [5] was active: 54.5 µM and the Potency [6] was inconclusive: 48.6 µM [cytotoxic, partial curve]. The Potency [7] was active: 61.1 µM, the Potency [8] was inconclusive: 10.9 µM [activator, partial curve] and the Potency [9] was active: 1.26 µM.
With COc1ccc(S(=O)(=O)N2C(=O)[C@@](c3ccccc3OC)(N3C[C@H](O)C[C@H]3C(=O)N(C)C)c3cc(Cl)ccc32)c(OC)c1 the Potency [1] was active: 54.5 µM, the Potency [2] was inconclusive: 38.6 µM [cytotoxic, single point] and the Potency [3] was inconclusive: 68.6 µM [cytotoxic, single point]. For the same compound, the Potency [10] was inconclusive: 24.5 µM [rising, partial curve], the activity, negative = inhibition [4] was inconclusive: -1.71% and the Potency [11] was inconclusive: 68.6 µM [activator, single point]. For the same compound, the Potency [12] was active: 61.1 µM, the Potency [9] was inconclusive: 63.3 µM [inhibitor, partial curve] and the Potency [13] was active: 39.9 µM.
For O=C1NC(=O)[C@@H]2CC=CC[C@H]12, the Potency [1] was inconclusive: 48.6 µM, the Potency [2] was active: 15.4 µM and the Potency [3] was active: 8.63 µM.
In the case of Oc1cccc2ccccc12, the Potency [1] was active: 28 µM and active: 43.3 µM, the Potency [2] was “inactive” and the Potency [3] was “inactive”. For the same compound, the Potency [14] was “inactive” and the Potency [9] was inconclusive: 64.9 µM [inhibitor, partial curve] and inconclusive: 71 µM [inhibitor, partial curve].
In the case of CC(=O)c1ccc2ccc3ccccc3c2c1, the Potency [1] was active: 9.63 µM, the Potency [2] was inconclusive: 76.5 µM [rising, single point] and the Potency [3] was inconclusive: 76.5 µM. The Potency [10] was “inactive”.
For COS(=O)(=O)C(F)(F)F, the activity change, negative = inhibition [1] was inconclusive: -11.8%, the Potency [2] was inconclusive: 80.4 µM [cytotoxic] and the Potency [3] was inconclusive: 71.7 µM [cytotoxic, single point].
In the case of Cc1ccc(O)cc1, the Potency [1] was inconclusive: 33.5 µM [falling, partial curve, poor fit], the Potency [2] was inconclusive: 8.41 µM [rising, full curve] and the Potency [3] was “inactive”.
In the case of CC(COc1ccc(C(C)(C)C)cc1)OS(=O)OCCCl (centres undefined), the Potency [1] was inconclusive: 27.4 µM [falling, partial curve], the Potency [2] was inconclusive: 2.74 µM [cytotoxic, full curve, poor fit] and the Potency [3] was inconclusive: 1.23 µM [cytotoxic, full curve]. For the same compound, the activity, negative = inhibition [4] was inconclusive: 9.35%, the Potency [5] was active: 12.3 µM and the Potency [6] was active: 10.9 µM. The Potency [7] was active: 15.4 µM and the Potency [15] was inconclusive: 89.9 µM [inhibitor, single point].
With CCC(=O)Oc1ccc(/C(CC)=C(\CC)c2ccc(OC(=O)CC)cc2)cc1 the Potency [1] was active: 12.2 µM, the Potency [2] was inconclusive: 77 µM [cytotoxic, single point] and the Potency [3] was inconclusive: 77 µM [cytotoxic, single point]. For the same compound, the activity, negative = inhibition [4] was inconclusive: 7.27%, the Potency [5] was inconclusive: 77 µM [cytotoxic, single point] and the Potency [6] was active: 61.1 µM. The Potency [8] was inconclusive: 19.3 µM [activator, partial curve].
With COc1ccc(C(=O)c2ccccc2O)c(O)c1 the Potency [1] was active: 27.2 µM and active: 23.7 µM, the Potency [2] was “inactive” and the Potency [3] was inconclusive: 68.4 µM [rising, single point].
For CC1=C(C(=O)O)N2C(=O)[C@@H](NC(=O)[C@H](N)c3ccc(O)cc3)[C@H]2SC1, the Potency [1] was inconclusive: 5.96 µM [falling, single point] and the Potency [2] was inconclusive: 33.5 µM [rising, partial curve, poor fit].
For CC(C)COCC(CN(Cc1ccccc1)c1ccccc1)N1CCCC1 (centres undefined), the Potency [1] was active: 29.8 µM, the Potency [2] was inconclusive: 33.5 µM [cytotoxic, single point] and the Potency [3] was inconclusive: 33.5 µM [cytotoxic, single point]. The Potency [14] was inconclusive: 19 µM [cytotoxic, partial curve], the Potency [10] was inconclusive: 4.25 µM [rising, partial curve] and the Potency [4] was inconclusive: 6.01 µM [rising, full curve]. The Potency [11] was inconclusive: 33.5 µM [activator, single point] and the Potency [12] was inconclusive: 33.5 µM [activator, single point].
